# Assay results published in PubChem BioAssay AID602156 (GNF / Scripps Winzeler lab, 2011).
# The list shows a part of the results. Shown are side measurements of this screen, not its main read-out; they come without a call.
# Test: exo-erythrocytic parasite development inhibition – imaging, Malaria Box, P. yoelii, HepG2-A16-CD81EGFP, dose response (AID 602156);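 further: infected cells exposed to compound for 48 hours before fixation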
# Conditions: P. yoelii liver stage in HepG2-A16-CD81EGFP, measured here: liver parasite size at 10 uM
row,SMILES,parasite size [um]
1,CCOc1ccc2ncc(S(=O)(=O)c3ccc(OC)cc3)c(N3CCN(C)CC3)c2c1,63.7
2,CCCN(CCC)[P+](CCC)(c1ccc([P+](CCC)(N(CCC)CCC)N(CCC)CCC)cc1)N(CCC)CCC,28.3
3,Cc1oc2c(c1C(=O)NCCCn1ccnc1)C(=O)c1ccccc1C2=O,12.5
4,CCC1CN2CCc3cc(OC)c(OC)cc3C2CC1CC1NCCc2cc(OC)c(OC)cc21 (stereo not drawn),13.8
5,CCOC(=O)c1ccc2[nH]c(-c3ccccc3)cc(=O)c2c1,20.7
6,CCOC(=O)C1=C(C)NC2=C(C(=O)C(C(=O)OCC)C(c3ccccc3OC)C2)C1c1cc(OC)c(OC)c(OC)c1 (stereo not drawn),104
7,CC(=O)N1c2ccc(C)cc2C(C)(c2ccccc2)CC1(C)C (stereo not drawn),105
8,CC1(C)N=C(N)N=C(N)N1c1ccc(F)cc1,38.9
9,CCCCCc1c(C)c(C#N)c2nc3ccccc3n2c1NCCN(CC)CC,74
10,C=CCN1C(=Cc2cc[n+](C)cc2)Sc2ccccc21,26.7
11,Nc1ccc(N2CCCCCC2)cc1,77.7
12,c1ccc2cc3c(N4CCN(CCN5CCN(c6ccnc7cc8ccccc8cc67)CC5)CC4)ccnc3cc2c1,136
13,CCOC(=O)c1c(NC(C)=O)sc2c1CCN(C(C)C)C2,93.2
14,CCCCSc1oc(C)nc1[P+](c1ccccc1)(c1ccccc1)c1ccccc1,22.1
15,Cc1cc(Nc2cccc(F)c2)nc(NCc2ccccc2)n1,73.1
16,O=C(c1cccc(Cl)c1)N1CCN(c2ccc([N+](=O)[O-])c(NC3CC3)c2)CC1,103
17,Clc1ccccc1-c1nc([P+](c2ccccc2)(c2ccccc2)c2ccccc2)c(N2CCOCC2)o1,20.6
18,CCOC(=O)c1c(CSc2ccccc2)oc2cc(CN(C)C)c(O)c(Cl)c12,188
19,O=[N+]([O-])c1cccc(C(Nc2nccs2)c2ccc3cccnc3c2O)c1 (stereo not drawn),43.4
20,COc1ccc(Nc2cc(C)nc(NCc3ccccc3)n2)cc1,57.8
21,N#Cc1ccc(NC(=O)NC2CC3CCCC(C2)N3CCc2ccccc2)cc1 (stereo not drawn),62
22,O=C1c2ccccc2-n2c1nc1ccccc1c2=O,89.5
23,CC[n+]1c(C=C2C=Cc3cc(C)ccc3N2C)sc(C)c1C,14.9
24,Cc1oc2c(c1C(=O)NCC1CCCO1)C(=O)c1ccccc1C2=O (stereo not drawn),21.4
25,c1ccc(Nc2ccnc(Nc3ccccc3)n2)cc1,92.4
26,CC1(C)N=C(N)N=C(N)N1c1ccc(I)cc1,33.8
27,COc1ccc2[nH]c3ccccc3c(=O)c2c1,30.3

row,SMILES,parasite size [um]
1,CC[n+]1c(/C=C/N(C)c2ccccc2)n(-c2ccccc2)c2ccc(-c3nc4ccccc4s3)cc21,20.1
2,O=C1C2=C(Nc3ccccc3SC2c2ccc(Br)cc2)c2ccccc21 (stereo not drawn),34
3,Cc1cc(C)nc(N=C(N)Nc2cccc(O)c2)n1,88.2
4,Fc1ccc2nc(Nc3nc(-c4ccccn4)cs3)sc2c1,22.9
5,CCCC[n+]1ccccc1C=C1Sc2ccccc2N1CC,18.5
6,c1ccc(-c2nn(-c3ccccc3)[n+](-c3ccccc3)n2)cc1,26.5
7,CCC[n+]1cccc2ccc3cccnc3c21,43.4
8,COc1ccc(C2CC(=O)C3=C(C2)NC(C)=C(C(=O)OC(C)C)C3c2cccc(C)c2)cc1OC (stereo not drawn),90.9
9,CCOc1ccc(N2C(N)=NC(N)=NC2(C)C)cc1,35.6
10,CCCCCCOc1ccc(C(C)=NNC2=NCCN2)cc1[N+](=O)[O-],61
11,FC(F)(F)c1ccccc1NC(=S)N1CCCN(c2nc3ccc(Cl)cc3s2)CC1,91.8
12,Cc1cccc(-c2cc3nc(C)c(C)c(=O)n3[nH]2)c1,67.4
13,c1ccc2c(NCCc3cnc[nH]3)c3ccccc3nc2c1,110
14,O=C1C2=C(Nc3ccccc3SC2c2ccc(OCc3ccccc3)cc2)c2ccccc21 (stereo not drawn),23.2
15,Cc1cc(OC(C)C(=O)N2CCc3ccccc32)ccc1Cl (stereo not drawn),59.6
16,CCOC(=O)c1cnc2ccc(OC)cc2c1Cl,31
17,O=C(Nc1ccc(Oc2cccc(Oc3ccc(NC(=O)c4ccc(Br)o4)cc3)c2)cc1)c1ccc(Br)o1,18.8
18,CCOC(=O)c1ccc(NC(=O)CSc2nc(NCc3ccccc3)c3ccccc3n2)cc1,69.2
19,COc1ccc2nc(-c3ccccc3)cc(NCCN(C)C)c2c1,69.1
20,CCN(CC)CCCN(Cc1cc2cc(OC)c(OC)cc2[nH]c1=O)C(=S)Nc1cccc(Cl)c1,60.5
21,CC(Oc1ccc(Cl)cc1Cl)c1nc(-c2ccc(NC(=O)c3cccs3)cc2)no1 (stereo not drawn),21.9
22,CCC(C)(C)c1ccc(OCCCC[n+]2cccc(C)c2C)c(C(C)(C)CC)c1,12.5
23,Cc1cn2c3ccccc3n(CCN3CCCC3)c2n1,126
24,COc1ccc2nc(C)cc(Nc3ccc(Oc4ccc(Cl)c5ccccc45)c(Cl)c3)c2c1,22.6
25,COc1ccc2nc(C)cc(Nc3ccc(Oc4ccc5ccccc5c4Cl)c(Cl)c3)c2c1,31
26,CCN1/C(=C/c2ccc3ccccc3[n+]2CC)Sc2sc3ccccc3c21,32.8
